Measured values taken from the supplement of paper PMC3334620.
Whole data set: some 33,000 sequences, median “E-score (-0.5 to 0.5)” near -0.016, cut for the highest 2% near 0.31. This is one part of the list.

These sequences were tested against Cst6 (UniProt P40535) (assay: PBM E-score (8-mer binding enrichment) (E-score (-0.5 to 0.5)); higher = stronger / more preferred TF binding; most listed sequences are background and not binding sites). Conditions: protein concentration: 200 nM; construct: GST-DNA-binding domain.
How it was run: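 Each ungapped eight-base word and its reverse complement, pooled, received an E-score from the Universal PBM Analysis Suite. Underlying scans, normalised with masliner, recorded fluorescent anti-GST bound to GST-tagged yeast transcription factors. These were applied at about 100-200 nM to universal all-10-mer Agilent arrays double-stranded by primer extension.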

Sequence | PBM E-score
AAAGTCGC | 0.107
AATCAGAG | 0.136
CGGACTGA | -0.0715
GTAACACA | 0.169
AACAGTAG | 0.128
CGCCCCTA | 0.00628
CAAGAGAA | 0.0843
ACGACGTC | 0.218
CGTACTGA | 0.0783
ACGGAGCT | -0.159
ATTTTCTG | 0.115
AAGCCCCA | -0.303
ATAACTGC | 0.0217
AGCAAGTC | -0.17
ATCTATCG | -0.00165
GCCTAGGA | -0.179
CAATTGAG | 0.169
CTGCTTGC | -0.153
ACACCCCG | -0.285
ACAGCACA | 0.172
GCCCCGCA | -0.183
CGGCTTTA | 0.0731
ACTTAGCT | -0.266
ATCTGTAA | 0.0335
AACTAACG | 0.141

Sequence | PBM E-score
ACCTGTCT | -0.266
GCGAGAAC | -0.0934
TACGGCCA | -0.0107
GCATCCGA | -0.118
AGTCGACC | -0.227
ATGGGCAG | -0.151
CCCGAAGA | -0.151
CCAAACGA | -0.123
TAAACTTA | 0.0492
ATGGGAGA | -0.136
CTGTTTCA | 0.0336
GGAGAACC | -0.242
AGGCGCGG | 0.0345
GTGCCAAC | -0.144
CAGAGCGC | -0.103
AGATCCAT | -0.172
AAAATCGT | 0.178
GTTCGACA | 0.155
AGCTTTGG | -0.168
AAACAGAT | 0.204
ACGTAATG | 0.476
CTGTCTCA | -0.176
CAATATCC | 0.0594
CCGGCTCC | -0.31
AGGGCCAC | -0.187

Sequence | PBM E-score
AGTGCGGA | 0.167
AGGGTCCC | -0.326
ATCCCTGA | -0.023
GCGAAGCC | -0.263
CCGAAAAG | 0.0209
AGACTCCA | -0.203
AAGTACCA | -0.00592
TATAGGCA | -0.112
TAGTTGAA | 0.0809
TCACGCCA | 0.128
GTCCAAGA | -0.294
AATAATAA | 0.313
GCGTTTTA | 0.0306
CACGATAC | -0.133
AATTAAAT | 0.219
CAGCCGAG | -0.197
CCATTTCC | 0.0501
GCGAGCGC | -0.213
GCACTCAC | -0.131
GGCTTAAA | 0.115
CATTGGGC | -0.137
ATCCTTCA | 0.111
GACTTCAC | 0.0486
CGTCCACC | -0.231
AAAACAAT | 0.243

Sequence | PBM E-score
CTCTCAAA | 0.117
AAGCTGGT | -0.101
TGAAGCCA | -0.065
ATAACAGC | 0.193
CCACGTTC | -0.211
ATTGCTTG | -0.0329
GGTAAGGA | -0.0829
AATCCAGT | -0.0432
CAACAGGC | -0.192
CCTTAGGA | 0.036
TATTTCAA | 0.318
AGGTCTTG | -0.104
AAGGGGGA | -0.318
ATTGTATA | 0.218
TGGCAACA | 0.00122
CGGAGGAA | -0.344
AAAGTTGC | 0.104
TACCGTCA | 0.345
TAGCTCAA | -0.125
AGGGCCCC | -0.34
TGAGCGCA | -0.101
CGCCCAGA | -0.331
ACCGTTTG | 0.0108
AGGGGTCC | -0.378
CCTGGCGA | -0.314

Sequence | PBM E-score
GGAACGTA | -0.167
CGCGGAAG | -0.133
GCATTGCC | -0.126
AATAGTTC | 0.175
ACCGGTGC | -0.105
AATAACTC | 0.00793
CCGCTAAA | -0.0858
CCCAGCCC | -0.384
AAGTATCG | -0.0368
GGATCCAA | -0.0467
CATGATGA | 0.342
TACGCGAA | 0.135
AAGGCGGT | -0.0672
AGGCTAGG | -0.258
TTGCACAA | 0.0726
CGATCATC | 0.123
AGCATGTG | -0.174
GCCAGGCA | -0.0943
CACCCTTA | -0.097
ACGTCAAA | 0.389
GTATGATA | 0.277
AGCCTAAT | -0.0628
AATATTAA | 0.334
ATATATGA | 0.234
AACAACGC | 0.114

Sequence | PBM E-score
CGGTCCAG | -0.242
ACGCTAGG | -0.196
CTTTCGTA | 0.203
GACGTACC | 0.349
AGCTCTTG | -0.129
ATTAAAGG | 0.0957
AGTGCTGA | -0.124
ACGGCGGC | 0.156
CCCTTACC | -0.0999
ACGAACCG | 0.0117
GAAACTTC | 0.0326
ATCCGTCC | -0.152
CGGGTACC | -0.297
ATTTCCAC | 0.22
CACGTCAA | 0.366
ATATCCAT | 0.146
AATTGGTC | 0.112
AGATCTAT | -0.00275
AGCGTGAC | 0.259
CAGGAACC | -0.334
CTCTTCCC | -0.178
AGGAGGAA | -0.108
ACCCAAGT | -0.173
ATACTGGG | -0.216
AACTAGTC | -0.123

Sequence | PBM E-score
AACGATCG | -0.0398
AAGCTTGG | -0.2
ACGCCATG | 0.219
CGCTGGTA | -0.141
AACCACCT | -0.0544
AGGTGAGG | -0.0942
CCCGGCAA | -0.171
GCCCTGCC | -0.237
AGAAGTCC | -0.185
CTGAACGC | -0.215
CAATACGC | -0.00637
CCGGCCGG | -0.0312
GGTGACAA | 0.27
GCATCACC | 0.231
TTCCTAAA | 0.00834
ACTCTAAA | 0.161
CTGAAGTC | -0.0806
CATAATCG | 0.2
ATTAAGTC | 0.222
CTACCGCA | -0.0718
AAGAGGTG | 0.133
AGGTATTA | 0.104
ACTACTAG | 0.0115
GCTTGCCA | 0.0626
AGCGCGCT | -0.107

Sequence | PBM E-score
TCGGCGAA | -0.12
TCCTAAGA | -0.059
GTTGTAAA | -0.0289
ATATGATG | 0.333
AGGGCAGC | -0.211
AAACATGG | -0.0699
ATGCACAA | -0.0724
ACCAGCGC | -0.076
GCTTGATA | 0.162
GAATAAAA | 0.216
CGTCGGTA | 0.00151
AGTCACCC | 0.117
ATATCGGG | -0.0486
AATGAAGT | 0.254
TCAAATGA | 0.214
GCATACAA | 0.178
AACGGGAA | 0.107
ACGTGTAG | -0.0679
ACCACGTG | -0.00605
GCATCCCC | -0.246
GGACTCTA | -0.217
ACGGCGAG | 0.18
ATGAGGAC | -0.135
GCCATCGC | -0.244
AGATAATG | 0.158

Sequence | PBM E-score
CGTTTGCC | 0.0166
ATTATTAA | 0.255
CACGCCGG | -0.0575
TGAAAAAA | 0.235
ACAATCGA | 0.0415
ACGCGCGG | 0.119
CTCATAGA | 0.0631
TATACTGA | 0.267
ACAAAGTG | -0.1
TGATTCAA | 0.163
CACATGGA | -0.00127
ATGAATAC | 0.195
TCGCCCAA | -0.157
CAACCGGG | -0.107
TGTGATAA | 0.264
AAGTGCAA | -0.0748
CGTGACCC | -0.0116
AGTGGCCG | -0.187
CCCATCGC | -0.184
GTTTCTTA | 0.13
GAATTACA | 0.0806
GCGGGAAA | 0.068
ATGTCGGA | -0.155
GGCTGAAA | 0.0421
CTCTCGCC | -0.249

Sequence | PBM E-score
AGATCGAA | 0.164
TCTAGAGA | -0.322
CGTATTAG | 0.239
AAAAGGTT | 0.00471
ATTCATCC | 0.0489
AGATAGTC | -0.147
CCCTGAGG | -0.313
CCATAATA | 0.114
CAGTGATC | 0.0796
CACACGTA | 0.0952
CCGTTGCG | 0.0674
CGGAGGGA | -0.377
GAGAAACA | 0.0998
GAGTGTGA | 0.146
CGGCCAAC | -0.16
ATCCCTAA | -0.28
GCAGCGGC | -0.00681
AAAGCCGC | 0.183
ACCGTCCT | -0.254
AAATTGGA | 0.113
ACCAGGTA | -0.29
AACGATTG | 0.0587
AGGTAGTG | 0.0524
CCTTGGAG | -0.0349
ACGGTTAT | -0.0415

Sequence | PBM E-score
CAATGAGA | -0.0451
CGACTCGA | -0.226
AAATGAAA | 0.322
AGGCTTAA | -0.0613
CGTCGGAA | 0.0694
CGCAAAGC | -0.0939
ACGAGGGA | -0.154
CTCCGAAA | -0.0868
GAGATGGA | -0.194
CAAGAACA | 0.053
ATCTCCGC | 0.0238
GGTATGTA | 0.0278
CCACTTGC | -0.181
ACCCATCT | -0.0183
CCGCGTTA | 0.134
ATCCAGTG | 0.103
GCGCTCGA | -0.0995
TAATTCTA | 0.157
CTCCTGGA | -0.315
GCCGGACA | 0.0223
ACGTCGGG | -0.168
GATTAGGA | 0.0224
CTCAGGAA | -0.163
AGTTTAAG | -0.0158
CTGAGACA | -0.202

Sequence | PBM E-score
TTAAGCAA | 0.0737
AGGAACCT | -0.131
ATGTTATA | 0.125
ATAGGCAA | 0.0135
ACTCGCTC | -0.159
GACTGTGA | 0.0621
AGCCCATA | -0.149
CTAGATGC | -0.0973
AGGATTCC | -0.189
GGCCGCCA | -0.246
CCATCTCC | -0.0491
AGCTCTTA | -0.022
TCGTCGCA | 0.0405
CGGAAAGA | -0.0305
GAGCTGCC | -0.222
CCAAACTA | 0.0704
AACGAACT | -0.00871
GACACTGC | -0.0605
CCATAACC | -0.191
CACAATCC | 0.0228
AAGGAGCA | -0.141
CTCGACAG | -0.272
ATTTTTAG | -0.00122
ACTCACGA | -0.053
CTGGTGTC | -0.119

Sequence | PBM E-score
AATCTCAT | 0.046
CTAGGGGA | -0.439
CAGTCACA | 0.0928
CCGTCTGC | -0.0111
AGCCAAAT | -0.0457
AAATGTCG | 0.113
TATTACAA | 0.193
ACAACGAG | 0.0817
ATGCGGTA | 0.0106
TAGAACTA | 0.0599
CGGCAATA | 0.189
AGCCAGGC | -0.062
CCTACGTA | 0.297
AAATGGCG | 0.142
CTGGATCA | -0.0505
CGAATTCA | 0.109
TGATCACA | 0.0749
AGCAATGA | 0.182
GGAGTTCA | -0.103
AGCAACGG | -0.0269
ATGAGGCG | -0.0116
ATCGGTTG | -0.118
ACGATAGT | 0.235
CTGGGGGC | -0.374
AGCGCAGG | -0.213

Sequence | PBM E-score
CGATCACG | 0.175
CGGCCACG | -0.124
CGCGAAGC | 0.0818
ACAGTCTC | -0.183
CGGACTAC | -0.121
CAGCAGGC | -0.109
ACTTAGAG | -0.0632
GCACCTTA | -0.103
CAGGATTC | 0.0383
GGAATTGA | 0.0716
ACTAATGA | 0.202
TCCGCTCA | -0.185
ATTGAAAC | 0.194
GGGTTACA | 0.126
ACGTATTA | 0.33
CACTCGTA | -0.11
ATCCTACC | -0.175
CTCGCAGA | -0.138
AGCCGGTG | -0.093
